This is an account of results in US20240254245A1 (JIANGSU HENGRUI PHARMACEUTICALS, published 2024).

Broadly, the EC50 is the concentration needed to bring the measured effect to its halfway point. What is called Kd is the equilibrium constant for the complex coming apart. Broadly, the koff is a measure of how fast the partners let go of each other. The term kon denotes the second-order rate constant of association. By IC50 is commonly meant the midpoint of a concentration-inhibition curve.

Experiment [1] has as its target T1, human RANKL protein (Sino Biological, 11682-HNCH) (human, UniProt O14788 136-317, limits assumed).
T1 sequence (looked up): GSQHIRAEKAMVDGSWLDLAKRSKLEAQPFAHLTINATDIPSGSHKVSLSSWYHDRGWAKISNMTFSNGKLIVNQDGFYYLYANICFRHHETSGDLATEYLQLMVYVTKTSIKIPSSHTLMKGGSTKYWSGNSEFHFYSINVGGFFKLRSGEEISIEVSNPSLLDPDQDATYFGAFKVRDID
Description: cell-based or functional assay.

The target in experiment [2] is T1, human RANKL protein (Sino Biological, …). Description: cell-based or functional assay. This is another data set of the same source.
Experiment [3] deals with T2, human NGF protein (Sino biological, 11050-HNAC) (human, UniProt P01138 partial chain). The experiment in a line: cell-based or functional assay.
Experiment [4] has as its target T1, human RANKL protein (Sino Biological, …). The experiment in a line: SPR (Biacore), antibody captured on Protein A chip. On the procedure: (§1) Reaction signals were detected in real time by using Biacore, and binding and dissociation curves were obtained. After dissociation was complete in each cycle, the biochip was washed and regenerated with a glycine-hydrochloric acid regeneration solution (GE, BR-1003-54) having a pH of 1.5. Fitting was performed on the experimental data using BIAevaluation version 4.1 software with a 1:1 model, and affinity values were obtained.
On the technique in general: In SPR one partner is held on a chip, and binding of the other changes the refractive index at the surface.

The target is the same in experiment [5]. Description: ELISA on coated antigen (1 ug/mL), anti-human Fc-HRP. As to the method: (§2) The antigen was diluted to 1 μg/mL with a pH 7.4 PBS buffer (BasalMedia, B320) and added to a 96-well microplate (Coming, 9018) at 100 μL/well, and the plate was incubated overnight at 4° C. After the liquid was discarded, a 5% skim milk (BD, 232100) blocking solution diluted with PBS was added at 300 μL/well, and the plate was incubated at 37° C. for 2 h for blocking. After the blocking was complete, the blocking solution was discarded, and the plate was washed 3 times with a PBST buffer (pH 7.4 PBS containing 0.1% tween-20). Then a bispecific antibody diluted with a sample diluent (pH 7.4 containing 1% BSA) to different concentrations was added at 100 μL/well, and the plate was incubated in a 37° C. incubator for 1 h. After the incubation was complete, the plate was washed 3 times with PBST. An HRP-labeled anti-human Fc secondary antibody (Abcam, ab97225) diluted with the sample diluent was added at 100 μL/well, and the plate was incubated at 37° C. for 1 h. After the plate was washed 3 times with PBST, TMB chromogenic substrate (KPL, 5120-0077) was added at 100 μL/well, and the plate was incubated at room temperature for 10 to 15 min. 50 μL of 1 M H₂SO₄ was added to each well to stop the reactions. The absorbance values at 450 nm were taken using a microplate reader, and the EC50 values for binding of the bispecific antibody to the antigens were calculated.
Background: ELISA stands for enzyme-linked immunosorbent assay.

In experiment [6] the target is T3, monkey RANKL (Sino Biological, 90301-C01H) (monkey).
T3 construct: Bought protein
The description is as above. On the procedure: as §2

The target of experiment [7] is T4, murine RANKL (R&D Systems, 462-TR/CF) (murine, UniProt O35235 72-316, limits assumed).
T4 construct: Bought protein
T4 sequence (looked up): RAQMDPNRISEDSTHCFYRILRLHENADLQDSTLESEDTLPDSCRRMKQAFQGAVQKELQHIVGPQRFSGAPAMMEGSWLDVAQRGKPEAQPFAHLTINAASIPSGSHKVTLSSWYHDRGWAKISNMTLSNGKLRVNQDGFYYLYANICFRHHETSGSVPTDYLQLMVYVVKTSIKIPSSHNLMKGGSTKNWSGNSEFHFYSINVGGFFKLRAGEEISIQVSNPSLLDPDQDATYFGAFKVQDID
The experiment is described as above. As to the method:
as §2

Experiment [8] addresses T2, human NGF protein (Sino biological, …). Described as above. On the procedure: as §2
Experiment [9] has as its target T5, murine NGF (Sino Biological, 50385-MNAC) (murine, UniProt P01139 122-241).
T5 construct: Bought protein
The experiment is described as above. On the procedure:
as §2

Experiment [10] deals with T1, human RANKL protein (Sino Biological, …). The experiment in a line: SPR (Biacore), antibody captured on Protein A chip, antigen in flow, 1:1 fit. As to the method:
as §1

The target in experiment [11] is T2, human NGF protein (Sino biological, …). The description is as above. As to the method:
as §1

Experiment [12] has the same target. Description: blocking ELISA: antibody titrated with fixed biotin-human NGF, on coated human TrkA. As to the method: (§3) The plate was incubated at 37° C. for 1.5 h. After the incubation was complete, the plate was washed 3 times with PBST. Streptavidin-HRP (Invitrogen, 434323, diluted at 1:4000) was added at 100 μL/well, and the plate was incubated at 37° C. for 1 h. The supernatant was removed. After the plate was washed 3 times with PBST, TMB chromogenic substrate (KPL, 5120-0077) was added at 100 μL/well, and the plate was incubated at room temperature for 10 to 15 min. […] The absorbance values at 450 nm were taken using a microplate reader.

Experiment [13] addresses T1, human RANKL protein (Sino Biological, …). Description: blocking ELISA: antibody titrated with fixed biotin-human RANKL, on coated human RANK. On the procedure:
as §3

T2 sequence (P01138 122-241 limits assumed): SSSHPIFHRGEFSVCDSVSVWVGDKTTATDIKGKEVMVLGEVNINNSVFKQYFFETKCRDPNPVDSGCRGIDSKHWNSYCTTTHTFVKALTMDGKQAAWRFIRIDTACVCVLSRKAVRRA
T5 sequence (P01139 122-241 limits assumed): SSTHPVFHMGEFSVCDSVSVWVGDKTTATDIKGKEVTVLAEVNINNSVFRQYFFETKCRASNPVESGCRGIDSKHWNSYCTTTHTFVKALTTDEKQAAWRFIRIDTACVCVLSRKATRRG

B1: Bispecific antibody 1 (bispecific antibody, human IgG4 S228P, kappa)
heavy: EVQLLESGGGLVQPGGSLRLSCAASGFTFSSYAMSWVRQAPGKGLEWVSGITGSGGSTYYADSVKGRFTISRDNSKNTLYLQMNSLRAEDTAVYYCVKDPGTTSIMSWFDPWGQGTLVTVSSASTKGPQVQLQESGPGLVKPSETLSLTCTVSGFSLIGYDLNWIRQPPGKGLEWIGIIWGDGTTDYNSAVKSRVTISKDTSKNQFSLKLSSVTAADTAVYYCARGGYWYATSYYFDYWGQGTLVTVSSASTKGPSVFPLAPCSRSTSESTAALGCLVKDYFPEPVTVSWNSGALTSGVHTFPAVLQSSGLYSLSSVVTVPSSSLGTKTYTCNVDHKPSNTKVDKRV[sequence of human IgG4 Fc with S228P (EU numbers) omitted]
light: EIVLTQSPGTLSLSPGERATLSCRASQSVRGRYLAWYQQKPGQAPRLLIYGASSRATGIPDRFSGSGSGTDFTLTISRLEPEDFAVFYCQQYGSSPRTFGQGTKVEIKTVAAPDIQMTQSPSSLSASVGDRVTITCRASQSISNNLNWYQQKPGKAPKLLIYYTSRFHSGVPSRFSGSGSGTDFTFTISSLQPEDIATYYCQQEHTLPYTFGQGTKLEIKRTVAAPSVFIFPPSDEQLKSGTASVVCLLNNFYPREAKVQWKVDNALQSGNSQESVTEQDSKDSTYSLSSTLTLSKADYEKHKVYACEVTHQGLSSPVTKSFNRGEC
notes: second chain = RANKL VL - linker TVAAP - NGF VL - kappa constant region; also called anti-RANKL/NGF bispecific antibody; DVD-IgG
Regarding B1, the “osteoclast differentiation-inhibiting activity, fold relative to denosumab” value in experiment [1] turned out to be 3.3 times. Besides, the “osteoclast differentiation-inhibiting activity (Raw264.7 cells + human RANKL, TRAP assay) IC50” value in experiment [2] was found to be 1.19 nM. In addition, the “TF-1 cell proliferation-inhibiting activity (TF-1 cells + human NGF, Cell-titer Glo) IC50” value in experiment [3] came to 3.16 nM. Moreover, the “affinity, fold of that of denosumab” value in experiment [4] is 3.8 times. For the same molecule, the EC50 in experiment [5] turned out to be 0.0624 nM; in [6] it was 0.467 nM; in experiment [8], 12.3 nM; in experiment [9] it was 4.34 nM. The binding result in [7] is reported as “no binding”. For the same molecule, the Kd in experiment [10] worked out at 3.89 nM; in experiment [11] it was 56.1 nM. Further, the koff in [10] was 8.77e-05 s⁻¹; in [11], 6.33e-05 s⁻¹. Besides, the values for the kon in experiment [10] and in [11] were 22500 M⁻¹ s⁻¹ and 1130 M⁻¹ s⁻¹, respectively. Also, the results for the 50% inhibitory concentration (IC50) in experiment [12] and in experiment [13] were 102 nM and 0.323 nM, respectively.
